Measurements as given in PubChem BioAssay (NCI).
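96-well plates; 48 h exposure; 5 concentrations. Endpoints by linear interpolation between flanking doses. Not reached: highest tested concentration assigned. Abbreviation: GI50, concentration required for 50% inhibition of growth. Definition used: TGI = concentration required for complete inhibition of growth.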 Numbered stars: 1 amine (or outer) side, 2 acyl side, 3 side chain; on linkers, the order of the positions; unused ones are H or OH. Square brackets hold non-standard residues; d marks the D form. Peptide text beside a SMILES is read from it. * marks the point of attachment. ξ: configuration not given here. X22 = O=C([C@H]1CCC[C@H]1N[*:1])[*:2]; ξW = NC(Cc1c[nH]c2ccccc12)C(=O)O; ξF = NC(Cc1ccccc1)C(=O)O; Boc = CC(C)(C)OC(=O)*; ξK = NCCCCC(N)C(=O)O; ξT = CC(O)C(N)C(=O)O; tBu = CC(C)(C)*

Tested on: NCI-H322M lung
Experiment: NCI tumour cell line growth inhibition, 48 h

| Structure (SMILES) | TGI [µM] | GI50 [µM] |
| --- | --- | --- |
| CCCC(=O)Nc1cc(/C=C/C(=O)N2CC(CCl)c3c2cc(OCc2ccccc2)c2[nH]cc(C)c32)n(C)c1 (centres undefined) | 1.14 | – |
| CC12OOC(c3ccccc31)c1c2ccc2ccccc12 (centres undefined) | 31.7 | – |
| CC1(C)CC(=O)C(/C=N/C(N)=S)=C(O)C1 | > 100 | – |
| COC(=O)C(=O)C(C(=O)C(=O)Nc1cccc(C(C)=O)c1)c1nc2ccc([N+](=O)[O-])cc2[nH]c1=O (centres undefined) | > 100 | – |
| Oc1cc(O)c2ccc(-c3ccc(O)c(O)c3)[o+]c2c1 | > 100 | – |
| O=C1c2cccnc2S(=O)(=O)N1c1ccc(Oc2ccccc2)cc1 | > 100 | – |
| CC[C@@H]1[C@@H](C)O[C@@](O)([C@@H](C)[C@H](O)[C@H](C)[C@H]2OC(=O)/C=C/C=C/[C@H](C)[C@@H]([C@@H](C)[C@@H](O)[C@H](C)[C@@]3(O)C[C@@H](O[C@H]4C[C@@H](O)[C@H](O)C(C)O4)[C@H](CC)[C@@H](C)O3)OC(=O)/C=C/C=C/[C@@H]2C)C[C@H]1O[C@@H]1C[C@@H](O)[C@H](O)C(C)O1 (some centres undefined) | 0.205 | 0.0838 |
| N#Cc1c(NC(=O)NCc2ccccc2)sc2c1CCCC2 | > 100 | 0.747 |
| COc1ccc(C(=O)Nc2ncc(Cc3cccc(Cl)c3)s2)cc1OC | > 100 | 15.7 |
| C1=NCCN2CCN(CCN=Cc3ccccc3OCc3cccc(n3)COc3ccccc31)CC2 | > 50 | – |
| COC(=O)c1c(C)cccc1C1CN=NC12Cc1ccccc1C2=O (centres undefined) | > 100 | – |
| N.N.NCCCCCN.O=C([O-])CCl.O=C([O-])CCl.O=C([O-])CCl.O=C([O-])CCl.[Pt+4].[Pt+4] | > 100 | 36.6 |
| O=[N+]([O-])c1ccc2nc(Cl)n[n+]([O-])c2c1 | 32.2 | – |
| COC(=O)CCC(NC(=S)N/N=C/c1ccccn1)C(=O)OC (centres undefined) | > 100 | – |
| Cc1c(O)c2ccccc2oc1=O | > 100 | – |
| N#Cc1cnc(-n2[nH]c3c(c2=O)CCCC3)[nH]c1=O | > 100 | – |
| CC1=C(O)c2cn(C)cc2C(=O)C1=O | > 100 | – |
| Oc1ccc2c(c1)CCc1c-2n(CCN2CCOCC2)c2ccc(O)cc12 | > 100 | – |
| CCN1CCCC(C#N)(c2ccccc2)CC1 (centres undefined) | > 100 | – |
| O=C1CC[C@H](N2C(=O)c3cccc4c(Cc5ccc(CN6CCOCC6)cc5)ccc2c34)C(=O)N1 | > 100 | > 100 |
| C=C(C)C1CC/C(C)=C/CCC2(C)OC2CC/C(CO)=C\C1O (centres undefined) | > 100 | – |
| Cc1ccc(/C=N/n2c(Cc3ccccc3)n[nH]c2=O)cc1 | > 100 | – |
| c1ccc2c(c1)NCCC(=NC1CCCCC1)N2 | > 100 | – |

| Structure (SMILES) | TGI [µM] | GI50 [µM] |
| --- | --- | --- |
| Cn1c2ccccc2n2c3ncccc3c(=NCCCC(=O)O)c(C#N)c12 | > 100 | – |
| Cc1cc(Cl)cc2c(N=Nc3ccc(S(N)(=O)=O)cc3)c(O)[nH]c12 | > 25 | > 25 |
| CC(=O)C1C(=O)C(=O)N(c2ccccc2)C1=O (centres undefined) | > 100 | – |
| CN(C)c1ccc(/C=C/c2ccnc3c(O)cccc23)cc1 | > 100 | 0.501 |
| O=[N+]([O-])c1ccc(C2CC(c3ccccc3Cl)=Nc3ccccc3S2)cc1 (centres undefined) | 61 | – |
| CCc1c(CN)c(CC)c(CNC2=NCCN2)c(CC)c1CNC1=NCCN1 | > 100 | – |
| CC(=O)OC1CC2CCN3C(=O)c4cc5c(cc4[C@H](C1OC(C)=O)C23)OCO5 (some centres undefined) | > 100 | – |
| COC(=O)/C(=N\NC(N)=O)C(C(=O)C(=O)Nc1ccccc1OC)c1nc2ccc([N+](=O)[O-])cc2[nH]c1=O (centres undefined) | > 100 | – |
| CC(C)N1CC2CN(Cc3ccccc3)CC(C1)C2=O | > 100 | – |
| CC(C)C1OC(N)=C(C#N)C1(C#N)C#N (centres undefined) | > 100 | – |
| CCOP(=O)(OCC)C(C)(C)N(C)/C(F)=N/C(F)(F)F | > 100 | – |
| COc1cc(C2S/C(=C/c3ccccc3)C(=O)N2c2ccc(NC(C)=O)cc2)cc(OC)c1OC (centres undefined) | 74.2 | – |
| NC(=O)C(=O)c1ncn(Cc2ccccc2)c1N | > 100 | – |
| COc1ccccc1C1C(Cl)C(=O)N1n1cnc2ccccc2c1=O (centres undefined) | > 100 | – |
| O=C1c2[nH]cc(CNC3CN4CCC3CC4)c2C(=O)c2c1c(O)c1ccccc1c2O (centres undefined) | 2.9 | 1.24 |
| OC(c1cc(-c2cccc(Cl)c2)nc2ccccc12)C1CCCCN1 (centres undefined) | 3.28 | 1.83 |
| O=C1NC(=S)N/C1=C\c1cc2c(=O)c3ccccc3sc2s1 | > 100 | – |
| COc1cc(C(=O)/C=C/c2ccc(OCCSCCCCCCCCCCSCCOc3ccc(/C=C/C(=O)c4cc(OC)c(OC)c(OC)c4)cc3)cc2)cc(OC)c1OC | > 100 | – |
| COc1ccc(C(CCC(C)=O)C(=O)O)cc1OC (centres undefined) | > 100 | – |
| Cc1cc([N+](=O)[O-])ccc1NC(=O)C(=O)C(C(=O)c1ccccc1-c1ccccc1)C1OC(=O)c2ccccc21 (centres undefined) | 34 | – |
| COc1c(C)cc(O)cc1C=O | > 100 | – |
| COC(=O)[C@@H](C)C[C@H](Cc1cn(C)c2ccccc12)NC(=O)c1csc([C@@H](C[C@H](C(C)C)N(C)C(=O)[C@@H](NC(=O)[C@H]2CCCCN2C)C(C)C)OC(C)=O)n1 | > 16.7 | 0.0843 |
| CCOc1ccc(N/C(=C(/C(Cl)=C(/Cl)Nc2ccccc2)[N+](=O)[O-])n2nnc3ccccc32)cc1 | > 100 | – |

| Structure (SMILES) | TGI [µM] | GI50 [µM] |
| --- | --- | --- |
| Nc1cc(F)ccc1CC(=O)O | > 100 | – |
| C=CC(=O)NCCSCCCOC1(C(=O)O)CC(O)C(NC(C)=O)C(C(O)C(O)CO)O1 (centres undefined) | > 100 | – |
| C=C=C(C(=O)OC)S(=O)c1ccccc1[N+](=O)[O-] (centres undefined) | > 100 | – |
| N#C[C@H](C(=O)c1ccccc1F)c1nc2ccccc2s1 | 64.1 | – |
| CC(=O)OCC(C)C1=C(OC(C)=O)C(=O)C2(C)C/C=C(/C)CC/C=C(\C)CCC(OC(C)=O)C(C)CCC12 (centres undefined) | 33.1 | – |
| COC(=O)C1=Cc2cc(OC)c(OC)c(OC)c2[C@H](c2cc(OC)c(OC)c(OC)c2)C1C(=O)OC (some centres undefined) | > 100 | – |
| C=C(C)C(=O)O[C@H]1CC2=C[C@@H](C[C@@]3(C)O[C@@H]3[C@H]3OC(=O)C(=C)[C@@H]31)OC2=O | 28.1 | – |
| Cc1sc2[nH]c(=O)oc(=O)c2c1C | > 100 | – |
| CCN(CC)CCNc1ccc(C)c2sc3cc(Cl)ccc3c(=O)c12 | 3.05 | 1.45 |
| O=C(c1cc2ccccc2[nH]1)N1C2CCC1CN(CCOC(c1ccc(F)cc1)c1ccc(F)cc1)CC2 (centres undefined) | > 100 | – |
| COC(=O)CCC(C)[C@H]1CCC2C3C(C[C@H](OC(C)=O)[C@@]21C)[C@@]1(C)CCC2(C[C@H]1C[C@H]3OC(C)=O)OOC1(CCCC1)OO2 (some centres undefined) | > 100 | – |
| Clc1c(Cl)c(Cl)c2c(nnn2C2CCCO2)c1Cl (centres undefined) | > 100 | – |
| Nc1c(C(=O)c2ccc(-c3cccnc3)cc2)cnn1-c1ccc(F)cc1 | > 25 | > 16.8 |
| COc1ccc(NC(=S)N/N=C\c2ccc(NC(C)=O)cc2)cc1 | > 100 | – |
| COC1C(CO)OC(n2c3ccccc3c3c4c(c5c6ccccc6[nH]c5c32)C(=O)NC4=O)C(O)C1O (centres undefined) | 0.206 | < 0.0296 |
| COc1cc(=O)c2c(O)c3c(O)oc(C)cc3c(OC)c2c1 | 68.1 | – |
| c1cnn(C23C4C5C6C4C2C6C53)c1 (centres undefined) | > 100 | – |
| COc1ccc(CC2C3=C(CCN2C(=O)C2CCC2)CC2(CC3)OCCO2)cc1O (centres undefined) | > 100 | – |
| C=C(C)[C@@H]1CC[C@]2(COCCC#N)CC[C@]3(C)[C@H](CC[C@@H]4[C@@](C)(CCCNCCC#N)[C@H](C(=C)C)CC[C@]43C)[C@@H]12 | > 50 | > 50 |
| COc1cc(/C=C2\C[C@H]3[C@@H]4CC=C5C[C@@H](O)CC[C@]5(C)[C@H]4CC[C@]3(C)[C@H]2O)ccc1OCCN1CCCC1 | 17.9 | 9.61 |
| CCC(CC)c1nc(Nc2ccc(C(=O)OC)cc2)c2ccccc2n1 | 15.1 | 0.447 |
| CC1=Nc2ccccc2NC(c2ccoc2)C1 (centres undefined) | > 100 | – |
| CCOC(=O)C1SC(=Nc2cccc(Cl)c2C)N=C1C (centres undefined) | 99 | – |

| Structure (SMILES) | TGI [µM] | GI50 [µM] |
| --- | --- | --- |
| Cn1c(NNc2ccccc2)cc(=O)[nH]c1=O | > 100 | – |
| O=C1CC(c2c(-c3ccccc3)[nH]c3ccccc23)C(=O)N1 (centres undefined) | > 100 | – |
| CN(C)CCNc1nc2ccccc2c2c1CCCC2 | > 100 | – |
| COc1cccc(CCC2CCCN(c3cc(C)nc(N)n3)C2)c1 (centres undefined) | 20.2 | 0.571 |
| O=C(O)CSCc1cc2c(O)c(c1)Cc1cc(CSCC(=O)O)cc(c1O)Cc1cc(CSCC(=O)O)cc(c1O)Cc1cc(CSCC(=O)O)cc(c1O)C2 | > 100 | – |
| FC(F)(F)c1ccc(Cc2nc3cc4ccccc4cc3[nH]2)cc1 | > 100 | – |
| COc1cc(/C=C2/SC(c3ccccc3)N(Cc3ccccc3)C2=O)cc(OC)c1OC (centres undefined) | > 100 | – |
| CC(OC(C)(C)C)C1NC(=O)C(CCCCNC(=O)OC(C)(C)C)NC(=O)C(Cc2c[nH]c3ccccc23)NC(=O)C(Cc2ccccc2)NC(=O)[C@H]2CCC[C@H]2NC(=O)C(Cc2ccccc2)NC1=O (some centres undefined) (cyclo([X22][ξF][ξW][ξK](Boc)[ξT](tBu)[ξF])) | > 100 | – |
| O=c1[nH]nc(Cc2ccc(Cl)cc2)n1/N=C/c1ccco1 | > 100 | – |
| CN1C(=O)CCC2[C@@H]3CC=C4C[C@@H](O)CC[C@]4(C)C3CC[C@@]21C (some centres undefined) | > 100 | – |
| COc1nc2ccc(COc3ccc(C(=O)NC(CCC(=O)O)C(=O)O)cc3)cc2nc1OC (centres undefined) | > 10 | – |
| Cc1ccc2c(=O)cc(Cc3cccs3)[nH]c2n1 | > 100 | – |
| CCN(CC)Cc1cc(Nc2c3ccccc3nc3c2[nH]c2ccccc23)cc(CN(CC)CC)c1O | 4.77 | – |
| O=S(=O)([O-])c1ccc(N=Cc2ccccc2[O-])cc1.O=S(=O)([O-])c1ccc(N=Cc2ccccc2[O-])cc1.[O]=[U+2]=[O] | > 100 | > 100 |
| COc1ccc2c(c1O)-c1cc(O)cc3c1[C@@H](C2)N(C)CC3 | 119 | – |
| Cc1ccc(Cl)cc1Nc1nc(C(F)(F)F)ccc1C(=O)N/N=C/c1cccnc1 | 6.39 | 0.719 |
| Cc1[nH]c(=O)nc2c1C(NCCCN(C)C)c1cc(Cl)ccc1N2 (centres undefined) | 29.4 | – |
| CCOC(=O)c1ccc(Nc2sc(C(=O)c3ccc(Br)cc3)c(N)c2C#N)cc1 | > 100 | 5.74 |
| CCOC(=O)[C@@H](C)C[C@H](Cc1ccccc1)NC(=O)c1nc([C@@H](C[C@H](C(C)C)N(C)C(=O)[C@@H](NC(=O)[C@H]2CCCCN2C)C(C)C)OC(C)=O)sc1CCOCc1ccccc1 | 6.17 | 0.0534 |
| O=c1cc(-c2ccccc2)oc2ccc(OC/C(=N/O)c3ccccc3)cc12 | 49.7 | 7.25 |
| CCOc1ccc2nc3nc(=O)[nH]c(C)c3c(NCCCN(CC)CC)c2c1 | > 100 | – |
| Cc1ccc(S(=O)(=O)N2CCN(S(=O)(=O)c3ccc(C)cc3)CCN(S(=O)(=O)c3ccc(C)cc3)Cc3cc(C#N)c(C#N)cc3CN(S(=O)(=O)c3ccc(C)cc3)CC2)cc1 | > 100 | – |
| Cc1cc(O)c2c(c1O)C(=O)c1cccc(O)c1C2=O | > 100 | – |
